Results on 34 variants are retold here after the RNAGym collection of RNA variant scans (doi:10.1093/nar/gkz1192).

Read counts are not given, so values of variants with three or more changes are uncertain.

B1: CPEB3 Ribozyme (parent)
chain: UAACAGGGGGCCACAGCAGAAGCGUUCACGUCGCAGCCCCUGUCAGAUUCUGGUGAAUCUGCGAAUUCUGCUGUAUAUCUC

In this series the parent is B1. Put plainly: self-cleavage, relative activity (ratio to wild type); higher = more cleavage; in vitro, sequencing. The procedure, abridged: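 CPEB3 self-cleaving ribozyme mutant libraries were made by rounds of error-prone PCR, barcoded, and transcribed in vitro with T7 RNA polymerase for 5 hours at 37°C. Cleavage occurred during transcription and a 15 min DNase I step before EDTA stop. RNAs were reverse transcribed with template switching and Illumina-sequenced, with DNA sequencing mapping barcodes to variants. Relative activity is the variant's cleaved/total read fraction divided by wild type's (minimum 5 reads), averaged across three batches.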
Regarding UAACAGGGGGCCACAGCAGAAGCGACCACGUCGCUGCCCCUGUCAGAUUCUGGUGAAUCUGCGAACUCUGCUGUAUGUCUC [U25A U26C A35U U66C A77G], the self-cleavage turned out to be 0.12.
For UAACAGGGGGCCACAGCAGAAGCGAUCACGCCGCAGCCCCCGUCAGAUUCUGGUGAAUCUGCGAAUUCUGCUGUAUAUCUC [U25A U31C U41C], the self-cleavage was 0.09.
UAACAGGGGGCCACAGCAGAAGCGAUCACGACGCAGCCCCUGCCAGAUUCUGGUGAAUCUGCGAAUUCUGCUGUAUAUCUC [U25A U31A U43C]: the self-cleavage came to 0.2.
Turning to UAACAGGGGGCCACAGCAGAAGCGAUCACGUCGCAGCCCCUAUCAGAUUCUAGUGAAUCUGUGAAUUCUGCUGUAUAUCUC [U25A G42A G52A C62U], the self-cleavage stood at 0.35.
Regarding UAACAGGGGGCCACAGCAGAAGCGAUCACGUCGCAGCCGCUGUCAGAUUCUGGUGAAUCCGCGAAUUCUGCCGGAUAUCUC [U25A C39G U60C U72C U74G], the self-cleavage is 0.03.
As to UAACAGGGGGCCACAGCAGAAGCGACCACGUCGCAGCCCCUGUCAGAUUCUGGUGAAUCUGCGAAUUCUACUGUAUAUCCC [U25A U26C G70A U80C], the self-cleavage stood at 0.06.
Next, UAACAGGGGGCCACAGCAGAAGCGAUCACGGCGCAGCCCCUGUCUGAUUCUGGUGAAUCUGCGAAUUCCGCUGUAUAUCUC [U25A U31G A45U U69C]: 0.16; UAACAGGGGGCCACAGCAGAAGCGAUCACGUCACAGCCCCUGUCAGAUUCUGGUGAACCUGCGGAUUCUGCUGAAUAUCUC [U25A G33A U58C A64G U74A]: 0.04; UAACAGGGGGCCACAGCAGAAGCGAUCACGUCGCAGCCCCUGUCAGAUUCUGGUGAAUCUCCGUAUUCUGCUGUAUACCUC [U25A G61C A64U U78C]: 0.11.
As for UAACAGGGGGCCACAGCAGAAGCGAUCACGUCGCAGCCCCUUACAGAUUCUGGUGAAUCUGCGAACUCUGCUGUAUAUCUC [U25A G42U U43A U66C], the self-cleavage amounted to 0.4.
To UAACAGGGGGCCACAGCAGAAGCGAUCACGUCGCAGCCCCAGUCAGAUUCUGGUGAGUCUGCGAAUUCUGCUGUAUAUCUC [U25A U41A A57G] belongs 0.38; to UAACAGGGGGCCACAGCAGAAGCGAUCACGACGCAGCCCCUGUCAGAUUCUGGUGAAUCUGCGUAUUCUGCUGUAUAUCUC [U25A U31A A64U], 0.24.
Next, UAACAGGGGGCCACAGCAGAAGCGAUCACGUCGCAGCCCCUGUCAGAUUGUGGUGAAUCUGCGAACUCUGCUGUAUAUCUC [U25A C50G U66C]: 0.1; UAACAGGGGGCCACAGCAGAAGCGACCACGUCGCAGCCCCUGUCGGGUUCUGGUGAAUCAGCGAAUUCUGCUGAUUAUCUC [U25A U26C A45G A47G U60A U74A A75U]: 0.1; UAACAGGGGGCCACAGCAGAAGCGAACACGUCGCAGCCCCCGUCAGAUACUGGUGGAUCUGCGAAUUCUGCUGUAUAUCUC [U25A U26A U41C U49A A56G]: 0.07.
UAACAGGGGGCCACAGCAGAAGCGACCACGUCGCUGCCCCUGUCAGAUUCUGGUGAAUCUGCGAAUUCAGCUGUGUAUCUC [U25A U26C A35U U69A A75G]: the self-cleavage was 0.15.
To UAACAGGGGGCCACAGCAGAAGCGACCACGUCGCAGCCCCUGUCAGAUUCGGGUGGAUCUGCGAAUUCUGCUGUUUAUCUC [U25A U26C U51G A56G A75U] belongs 0.08; to UAACAGGGGGCCACAGCAGAAGCGACCACGUCGCAGCCCCUGUCAGAUUCUGGUGAAUCUGCGACUUCUGCUGUAUAUCUC [U25A U26C A65C], 0.48; to UAACAGGGGGCCACAGCAGAAGCGAUCACGUCGCAGCCCCUGUCAGAUUGUGGUGAAUCUGCGAACUCAGCUGUAUAUCUC [U25A C50G U66C U69A], 0.18.
As for UAACAGGGGGCCACAGCAGAAGCGAAGACGACGCAGCCCCUGUCGGAUCCUGGUGAAUCUGCGAAUUCUGCUGUAUAUCUC [U25A U26A C27G U31A A45G U49C], the self-cleavage turned out to be 0.06.
Regarding UAACAGGGGGCCACAGCAGAAGCGAUCACGUCGCAGCCCCUGUCAGAUUCUGGUGAAUCUACGAAUUCCGCUGUAUAUCUC [U25A G61A U69C], the self-cleavage was determined as 0.16.
Consider UAACAGGGGGCCACAGCAGAAGCGACCACGUCGCAGCCCCUGUCAGAUUCUGGUGAAUCUGCGAAUUCUGCUGUGUACCUC [U25A U26C A75G U78C], for which the self-cleavage came to 0.05.
As to UAACAGGGGGCCACAGCAGAAGCGAUCACGACGCAGCCCCUGCCAGAUUCUGGUGAAUCUGCGAAUUCUGCUGUAUAACUC [U25A U31A U43C U78A], the self-cleavage turned out to be 0.05.
To UAACAGGGGGCCACAGCAGAAGCGACCACGUCGCAGCCCCUGUCAGAUUCUGGCGAAUCUGCGGAUUCGGCUGUAUAUCUC [U25A U26C U54C A64G U69G] belongs 0.05.
Consider UAACAGGGGGCCACAGCAGAAGCGACUACGUCGCAGCCCCUGUCAGAUUCUGGUGGAUCAGCGAAUACUGCCGUAUAUCUC [U25A U26C C27U A56G U60A U67A U72C], for which the self-cleavage stood at 0.04.
In the case of UAACAGGGGGCCACAGCAGAAGCGAUCACAUCGCAGCCCCUGUCAGAUUCUGGUGAAUCUGCGAGUUCUGCUGUAUAUCUC [U25A G30A A65G], the self-cleavage was determined as 0.21.
Regarding UAACAGGGGGCCACAGCAGAAGCGAUCACGUCGCAGUCCCUGUCAGAUUCUGGUGAAUCUGCGAAUUCUGCAGUAUAUCUC [U25A C37U U72A], the self-cleavage was found to be 0.1.
To UAACAGGGGGCCACAGCAGAAGCGAUCACGUCGCAACCCCUGUCAGAUACUGGUGAAUCGGCGAACUCUGCUGUAUAUCUC [U25A G36A U49A U60G U66C] belongs 0.05; to UAACAGGGGGCCACAGCAGAAGCGAGCACGUCGCAGCCCCUGUCUGAUUCAGGUGAAUCUGCGAAUUCUGCUGAAUAUCUC [U25A U26G A45U U51A U74A], 0.26.
For UAACAGGGGGCCACAGCAGAAGCGACCACGUCGCAGCCCCUGUCAGAUUCUGGUGAAUAUGCGAAUUCUGCUGUAUAUCUC [U25A U26C C59A], the self-cleavage was determined as 0.11.
To UAACAGGGGGCCACAGCAGAAGCGAUCACGUCGCAGCACCUGUCAGAUUCUGGUGAAACUGCGAAUUCUGCUGUAUAUCUC [U25A C38A U58A] belongs 0.15.
In the case of UAACAGGGGGCCACAGCAGAAGCGAACACGUCGCAGCCCCUGUCAGAUUCUGGUGAAUCUGCAGGUUCUGCUGUAUAUCUC [U25A U26A G63A A64G A65G], the self-cleavage was 0.19.
In the case of UAACAGGGGGCCACAGCAGAAGCGAUCACGACGCCGCCCCUGCCAGAUUCUGGUGAAUCUGCGAAUUCUGCUGUAUAUCUC [U25A U31A A35C U43C], the self-cleavage was determined as 0.14.
Take UAACAGGGGGCCACAGCAGAAGCGAUCACGUCGCAGCCCCUGUCAGAUUCUGGUGAAUCUCCAGAUUCUGCUGUUUAUCUC [U25A G61C G63A A64G A75U]: the self-cleavage came to 0.18.
